Assay results: PubChem BioAssay AID2147 (National Center for Advancing Translational Sciences (NCATS), 2009)
Where “and” joins values, the source holds several entries; their conditions need not be identical. Identical values can stand only once. In all, about 230,000 compounds went through this assay and about 3,600 (1.6%) were called active. The inconclusive results got no clear call from the source; some entries with a clear call stand among them for comparison. Calls follow the shape of the dose curve; as a rule, active = well fitted inhibition curve with a large enough effect (not every such curve was filed as active); inconclusive = small, poorly fitted or top-dose-only effect, or another doubt; inactive = no such curve, though single readings can be large or run the other way. Potencies beside an inconclusive call are fits to weak or partial responses and may not hold up.

What follows are compounds tested against Lysine-specific demethylase 4E (Homo sapiens) (UniProt B2RXH2) (assay: qHTS Assay for Inhibitors of Human Jumonji Domain Containing 2E (JMJD2E)). Details: JMJD2E catalytic domain, FDH-coupled NADH fluorescence (FDH is formaldehyde dehydrogenase); series mostly up to 57.1 µM; activity change, negative = inhibition: at the top concentration.
Also: nearly all actives have a fitted effect of over 50% in size.
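For activity change, negative = inhibition in this document: 0% = wells with enzyme and -100% = buffer wells without enzyme.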
Potency is read from the fitted curve at half-maximal effect; tags tell the direction and shape of the fitted curve.

UniProt B2RXH2, sequence (B2RXH2 whole entry, looked up, the tested form may be a part): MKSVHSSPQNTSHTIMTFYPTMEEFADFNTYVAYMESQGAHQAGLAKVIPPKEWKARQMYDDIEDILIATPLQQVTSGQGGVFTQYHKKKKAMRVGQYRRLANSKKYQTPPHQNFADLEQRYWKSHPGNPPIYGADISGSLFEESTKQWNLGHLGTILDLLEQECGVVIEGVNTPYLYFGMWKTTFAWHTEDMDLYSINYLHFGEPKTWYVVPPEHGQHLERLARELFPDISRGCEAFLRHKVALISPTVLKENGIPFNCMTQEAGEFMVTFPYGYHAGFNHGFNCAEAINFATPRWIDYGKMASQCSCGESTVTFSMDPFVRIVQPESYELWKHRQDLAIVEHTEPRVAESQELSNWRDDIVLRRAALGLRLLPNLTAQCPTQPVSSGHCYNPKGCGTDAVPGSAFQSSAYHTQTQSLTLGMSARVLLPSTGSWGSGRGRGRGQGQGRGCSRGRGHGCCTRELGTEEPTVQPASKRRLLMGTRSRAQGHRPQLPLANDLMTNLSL

SMILES	Potency	activity change, negative = inhibition
O=C(Nc1cccc2ccccc12)N1CCN(Cc2ccccc2)CC1	inconclusive: 28.2 µM [inhibitor, single point]	
O=c1cc(-c2ccccc2)c2ccc(O)c(CN3CCCCC3)c2o1	inconclusive: 35.5 µM [inhibitor, partial curve]	
CCc1ccc2[nH]c(=O)c(CN(CC3CCCO3)C(=S)NCc3ccco3)cc2c1 (centres undefined)	inconclusive: 28.2 µM [inhibitor, single point]	
CCN1CCN(c2ncnc3c2oc2nc(C(C)C)c4c(c23)CCC4)CC1	inconclusive: 25.1 µM [inhibitor, single point]	
NC(=O)c1ccccc1Nc1nc2nc3ccccc3c(=O)n2cc1Br	inconclusive: 31.6 µM [inhibitor, partial curve]	
Cc1ccccc1NC(=O)c1ccc(-n2cncn2)nc1	inconclusive: 35.5 µM [inhibitor, single point]	
COc1cc(/C=C2\C(=O)N(c3ccccc3)N=C2C)ccc1Oc1ccc([N+](=O)[O-])cc1[N+](=O)[O-]	inconclusive: 3.55 µM [inhibitor, partial curve]	
Cc1cc(=O)oc2cc3c(cc12)OCCN3	inconclusive: 8.91 µM [inhibitor, partial curve]	
COc1ccc(CCNC(=O)CSc2ccc3ccccc3c2)cc1OC		inactive: -1.18%
Cc1ccc(S(=O)(=O)c2c(N)n(C)c3nc4ccccc4nc23)cc1	inconclusive: 28.2 µM [inhibitor, partial curve]	
Nn1c(-c2cccc(Br)c2)n[nH]c1=S	inconclusive: 35.5 µM [inhibitor, single point]	
CCOc1cc(/C=N/n2cnnc2)ccc1OS(=O)(=O)c1ccccc1	inconclusive: 25.1 µM [inhibitor, single point]	
Cc1ccc2c(c1)c1c(n2CC(O)Cn2ccnc2C)C(=O)CCC1 (centres undefined)	inconclusive: 25.1 µM [inhibitor, partial curve]	
CCCCCc1cc(=O)oc2c(C(CCN3CCCC(C)C3)c3cc(OC)c(OC)c(OC)c3)c(OC)cc(OC)c12 (centres undefined)	inconclusive: 25.1 µM [inhibitor, single point]	
NC(=O)c1cccc(N)c1	inconclusive: 31.6 µM [inhibitor, partial curve] and inconclusive: 28.2 µM [inhibitor, partial curve]	
COc1ccc(N2C(=O)c3ccccc3NC2c2ccc(OC)c(Cn3nnc4ccccc43)c2)cc1 (centres undefined)	inconclusive: 35.5 µM [inhibitor, partial curve]	
Cc1nc2scc(-c3ccc(C(C)C)cc3)c2c(=O)n1N		inactive: 9.16%
CCN(CC)C(=O)Oc1ccc2c(=O)c(-c3ccc(OC)cc3)c(C)oc2c1		inactive: -0.694%
Cc1cccn2c(=O)c3cc(C#N)c(=O)n(CCCN4CCOCC4)c3nc12	inconclusive: 28.2 µM [inhibitor, partial curve]	
Cc1cccc2cc(/C=C/C(=O)c3ccco3)c(Cl)nc12	inconclusive: 28.2 µM [inhibitor, partial curve]	
CCOC(=O)C(C)Sc1nc(=O)n2cccc(C)c2n1 (centres undefined)	inconclusive: 35.5 µM [inhibitor, single point]	
COc1ccc(/C=C/C(=O)OCC(=O)Nc2ccc(S(N)(=O)=O)cc2)cc1OC	inconclusive: 25.1 µM [inhibitor, partial curve]	

SMILES	Potency	activity change, negative = inhibition
Cc1ccc2nc3c(cc(C(N)=S)c(=N)n3CCCOC(C)C)c(=O)n2c1	inconclusive: 28.2 µM [inhibitor, partial curve]	
CCCCCC1CCC(c2ccc(/C(N)=N/O)cc2)CC1 (centres undefined)		inactive: -2.48%
S=c1nc(SCc2ccccc2)[nH]c2ccccc12		inactive: 1.32%
CS(=O)(=O)N(CC(=O)O)c1cccc(Cl)c1	inconclusive: 39.8 µM [inhibitor, single point]	
COc1ccc2cc3cc(C(=O)NCC4COc5ccccc5O4)oc3nc2c1 (centres undefined)	inconclusive: 14.1 µM [inhibitor, partial curve]	
O=c1cc(Cn2ccnc2)c2cc3c(cc2o1)CCC3	inconclusive: 25.1 µM [inhibitor, partial curve]	
NN1C(=O)/C(=C\c2ccco2)SC1=S	inconclusive: 25.1 µM [inhibitor, single point]	
Cc1ccn2c(CNCCn3nc(C)cc3C)c(C(=O)N3CCCCCC3)nc2c1	inconclusive: 25.1 µM [inhibitor, single point]	
COCc1cc(C)n(CC(=O)Nc2ccc(Cl)cc2Cl)c(=O)c1C#N	inconclusive: 28.2 µM [inhibitor, partial curve]	
O=C(Nc1ccccc1)Nc1sccc1-c1nc2ccccc2s1	inconclusive: 35.5 µM [inhibitor, single point]	
COc1cc(SC)ccc1C(=O)Nc1ccc(Cl)cn1	inconclusive: 28.2 µM [inhibitor, single point]	
Nc1cc(C(=O)N2CCCC2)cc(C(=O)N2CCCC2)c1	inconclusive: 39.8 µM [inhibitor, single point]	
CC1CC(=O)C2=C(C1)Nc1nc3ccccc3n1C2c1cccnc1 (centres undefined)	inconclusive: 3.16 µM [inhibitor, full curve]	
Cc1nn(CC(=O)NNC(=S)Nc2ccccc2)c(C)c1[N+](=O)[O-]		inactive: 1.9%
Cc1cccc(N2C(S)=C(C#N)C(=O)NC2c2cccs2)c1 (centres undefined)		inactive: -14.7%
COC(=O)c1cn(-c2ccccc2)nc1-c1ccccc1		inactive: -3.39%
O=C(Nc1ccccc1)c1ccc(-c2ccc(F)cc2)s1	inconclusive: 17.8 µM [inhibitor, partial curve]	
COc1ccc(OC)c(NC(=O)CSc2nnc(C3CCCCC3)n2-c2ccccc2)c1		inactive: -1.86%
O=c1[nH]c(Nc2ccccc2)cc2ccccc12	inconclusive: 28.2 µM [inhibitor, partial curve]	
Cc1[nH]c2ccccc2c1C(=O)COC(=O)C1CC(=O)N(Cc2ccco2)C1 (centres undefined)		inactive: 8.47%
COC(=O)CN1C(=O)C2(C(C#N)=C(N)Oc3ccccc32)C2=C1CC(C)(C)CC2=O (centres undefined)		inactive: -4.97%
CCCCC(CC)Cn1c2nc3ccccc3nc2c2c(=N)oc(C)nc21 (centres undefined)	inconclusive: 7.94 µM [inhibitor, single point]	
